Several values for one entry are separate records, joined by “and”; a condition that tells them apart may be missing. Identical values can stand only once. Inconclusive means that the source gave no clear call. Such entries were picked first, then a sample of the others. Potencies of inconclusive entries are doubtful fits and often do not repeat. Where a structure was tested more than once in an assay, its records may differ in their call. Activity calls are given as the source filed them. Calls come from the whole dose curve; as a rule, active = well fitted cell-killing curve with a large enough effect in the repeat runs; inconclusive = weak or mixed curves, or effect the other way; inactive = no such curve, though single readings can be large or run the other way.
test: qHTS assay for small molecule activators of the heat shock response signaling pathway - cell viability counter screen (AID 743209); conditions: HSE-bla HeLa viability, CellTiter-Glo luminescence, 5 h; series mostly up to 62.6 µM; note: nearly all actives have a fitted effect of over 50% in size
Description: U.S. Tox21 Program National Center for Advancing Translational Sciences [NCATS] NIH Chemical Genomics Center [NCGC] U.S. Environmental Protection Agency [EPA] National Institutes of Environmental Health Sciences [NIEHS] National Toxicology Program [NTP] U.S. Food and Drug Administration [FDA] Tox21 Assay Overview: Various chemicals, environmental and physiological stress conditions may lead to the activation of heat shock response/ unfolded protein response (HSR/UPR). There are three heat shock transcription factors (HSFs) (HSF-1, -2, and -4) mediating transcriptional regulation of the human HSR. To identify the compounds that activate HSR signaling, HSE-bla HeLa cell line (Invitrogen, Carlsbad, CA, USA) containing a beta-lactamase reporter gene under the control of the heat shock response elements was used to screen Tox21 10K compound library. The cytotoxicity of the Tox21 compound library against the HSE-bla HeLa cell line was tested in parallel by measuring the cell viability using CellTiter-Glo assay (Promega, Madison, WI) in the same wells.
Tox21 Assay Protocol Summary: The CellSensor HSE-bla HeLa cells (Invitrogen, Carlsbad, CA, USA) were dispensed at 1500 cells/6uL/well into 1536-well black wall/clear bottom plates using a Multidrop combi (Thermo Fisher Scientific, Waltham, MA) dispenser. After the assay plates were incubated at 37 C and 5% CO2 overnight, 23 nL of compounds dissolved in DMSO, positive controls or DMSO only was transferred to the assay plate by a Pintool station (Kalypsys, San Diego, CA). The plates were incubated at 37 C for 5 h. After 1 uL of LiveBLAzerTM B/G FRET substrate was added using a Flying Reagent Dispenser (FRD, Beckman Coulter, Indianapolis, IN, USA), the plates were incubated at room temperature for 2.5 h, and fluorescence intensity was measured by an Envision plate reader (PerkinElmer, Shelton, CT). For cell viability readout that measures cytotoxicity, 3 ul/well of CellTiter-Glo reagent was added into the assay plates using a FRD. After 30 min incubation at room temperature, the luminescence intensity in the plates was measured using a ViewLux (PerkinElmer) plate reader.
Potency is the fitted concentration of half-maximal effect; tags give direction and shape of the fitted curve.

Row | Compound | Potency
1 | CN(C[C@@H](CC[N+]12CCC(C3CCCCC3)(CC1)CC2)c1ccc(Cl)c(Cl)c1)C(=O)c1cc(C(F)(F)F)cc(C(F)(F)F)c1 | active: 24.5 µM
2 | Cc1cc(Cc2cc(C)cc(C(C)(C)C)c2O)c(O)c(C(C)(C)C)c1 | active: 11 µM and active: 13.8 µM
3 | NC(=O)n1c(O)c(C(=O)c2cccs2)c2cc(Cl)ccc21 | inconclusive: 1.19 µM [cytotoxic, single point]
4 | CN(C)CCCN1c2ccccc2Sc2ccc(Cl)cc21 | inconclusive: 23.7 µM [cytotoxic, single point]
5 | C[C@]12CC[C@@H]3c4ccc(O)cc4CC[C@H]3[C@@H]1CC[C@@H]2OC(=O)CCC1CCCC1 | inconclusive: 54.9 µM [cytotoxic, single point] and inconclusive: 33.5 µM [cytotoxic, single point]
6 | C[C@]12CC[C@@H]3c4ccc(O)cc4CC[C@H]3[C@@H]1CCC2=O | inconclusive: 10.6 µM [cytotoxic, full curve, poor fit]
7 | CCCCCCCCCCCCCCCCCC[N+](C)(C)C | active: 34.8 µM
8 | CCCCCCCCCCCCN1CCCC1=O | active: 21.9 µM
9 | NCc1cccc(C2CCN(C(=O)c3ccc(C#Cc4ccccc4F)o3)CC2)c1 | inconclusive: 61.6 µM [cytotoxic, single point]
10 | CC(C)(c1cc(Br)c(O)c(Br)c1)c1cc(Br)c(O)c(Br)c1 | inconclusive: 10.9 µM [cytotoxic, partial curve, poor fit] and inconclusive: 54.8 µM [cytotoxic, single point] and inconclusive: 32.8 µM [cytotoxic, partial curve, poor fit]
11 | Cc1ccc(O)c(C(C)(C)C)c1 | active: 24.5 µM
12 | Clc1ccc(C(c2ccccc2Cl)C(Cl)Cl)cc1 (stereo not given) | inconclusive: 61.7 µM [cytotoxic, single point]
13 | CCCCCCCCCCCCCC(=O)OC(C)C | inactive
14 | CC(=O)O[C@]1(C(C)=O)CC[C@H]2[C@@H]3C=C(C)C4=CC(=O)CC[C@]4(C)[C@H]3CC[C@@]21C | inactive
15 | COc1cc([C@@H]2c3cc4c(cc3[C@@H](O[C@@H]3O[C@@H]5CO[C@@H](C)O[C@H]5[C@H](O)[C@H]3O)[C@H]3COC(=O)[C@H]23)OCO4)cc(OC)c1O | inconclusive: 48.4 µM [cytotoxic, single point]
16 | CC[C@H]1O[C@]2(CC[C@@H]1C)C[C@@H]1C[C@@H](C/C=C(\C)C[C@@H](C)/C=C/C=C3\CO[C@@H]4[C@H](O)C(C)=C[C@@H](C(=O)O1)[C@]34O)O2 | active: 6.85 µM
17 | CCCCCCCCCC[N+](C)(CCCCCCCCCC)CCC[Si](OC)(OC)OC | active: 13.8 µM
18 | CC1=C(CC(=O)O)c2cc(F)ccc2/C1=C\c1ccc(S(C)=O)cc1 (stereo not given) | inactive
19 | CCN(CC)C(=S)SSC(=S)N(CC)CC | inconclusive: 125 nM [cytotoxic] and inconclusive: 119 nM [cytotoxic, full curve, poor fit]
20 | CC[C@H](c1ccc(O)cc1)[C@@H](CC)c1ccc(O)cc1 | inconclusive: 54.9 µM [cytotoxic, single point]

Row | Compound | Potency
21 | CCCCCCCCCCOCC(O)CN (stereo not given) | inconclusive: 33.5 µM [cytotoxic]
22 | O=c1cc(-c2ccccc2)oc2ccccc12 | inconclusive: 48.7 µM [cytotoxic, single point]
23 | CC(C)(C)CC(C)(C)c1ccc(OCCOCC[N+](C)(C)Cc2ccccc2)cc1 | active: 34.6 µM and inconclusive: 33.5 µM [cytotoxic, single point]
24 | O=c1c(O)c(-c2ccc(O)cc2)oc2cc(O)cc(O)c12 | inactive
25 | Clc1nc(C(Cl)(Cl)Cl)c(Cl)c(Cl)c1Cl | active: 17.4 µM
26 | CCCCCC(=O)O[C@]1(C(C)=O)CC[C@H]2[C@@H]3CCC4=CC(=O)CC[C@]4(C)[C@H]3CC[C@@]21C | inconclusive: 43.4 µM [cytotoxic, partial curve]
27 | S=P(N1CC1)(N1CC1)N1CC1 | inconclusive: 0.574 µM [cytotoxic, single point]
28 | CCCCCCOC(=O)c1ccc(O)cc1 | inconclusive: 61.7 µM [cytotoxic, single point]
29 | CCCCCCCCCOC(=O)c1ccc(O)cc1 | active: 24.2 µM
30 | O=C(Nc1ccccc1SSc1ccccc1NC(=O)c1ccccc1)c1ccccc1 | inconclusive: 11 µM [cytotoxic, partial curve, poor fit] and inconclusive: 2.19 µM [cytotoxic, full curve]
31 | CCCCCN=C(N)N/N=C/c1c[nH]c2ccc(OC)cc12 | active: 29.8 µM
32 | Cc1cc(F)ccc1-c1cc(N2CC[C@@H](O)[C@H]2CO)ncc1N(C)C(=O)C(C)(C)c1cc(C(F)(F)F)cc(C(F)(F)F)c1 | active: 19.2 µM
33 | CCc1cc(Cc2cc(CC)c(N)c(CC)c2)cc(CC)c1N | inconclusive: 61.7 µM [cytotoxic, single point]
34 | Cc1cc(Br)ccc1NC(=O)CCl | active: 12.3 µM
35 | CCN(CC)c1ccc(N)cc1 | inconclusive: 0.0032 µM [rising, full curve, poor fit]
36 | c1ccc(Nc2cccc3ccccc23)cc1 | inconclusive: 55.7 µM [cytotoxic, single point]
37 | NC(=O)C1(N2CCCCC2)CCN(CCCN2c3ccccc3CCc3ccc(Cl)cc32)CC1 | inconclusive: 33.5 µM [cytotoxic, single point]
38 | CC(C)CCCCCCc1ccc(O)cc1 | active: 39.6 µM and active: 54.9 µM
39 | On1ccccc1=S | active: 0.153 µM
40 | O=C(Nc1ccc(Cl)cc1)Nc1ccc(Cl)c(C(F)(F)F)c1 | active: 9.44 µM
